Data as given in publication PMC12820563, “FoxP3 forms a head-to-head dimer in vivo and stabilizes its multimerization on adjacent microsatellites”.
The list shows a part of the results.

The sequences below were run against T1, MBP-FoxP1dN (Mus musculus, UniProt P58462 326-579) (assay: PD-seq (MBP pull-down with sequencing); 20 mM Tris-HCl pH 7.5, 100 mM NaCl, 1.5 mM MgCl2, 0.4 uM protein, 0.1 uM dsDNA library, 30 min, room temperature, amylose pull-down; high values mean tight binding). Conditions: protein: recombinant; tags: His6-MBP; chain copies: 2; dsDNA, one strand shown.
T1 sequence: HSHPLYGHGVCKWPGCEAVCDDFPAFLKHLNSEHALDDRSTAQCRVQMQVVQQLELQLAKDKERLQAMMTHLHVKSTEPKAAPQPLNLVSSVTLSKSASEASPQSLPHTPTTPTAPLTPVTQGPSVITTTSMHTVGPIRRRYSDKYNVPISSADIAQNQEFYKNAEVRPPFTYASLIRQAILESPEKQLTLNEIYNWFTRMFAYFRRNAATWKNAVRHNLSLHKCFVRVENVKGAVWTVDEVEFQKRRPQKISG
Procedure, shortened: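 E. coli-expressed mouse FoxP3 or FoxP1 fragment, N-terminus removed and tagged with His6-MBP, was used at 0.4 µM against 0.1 µM of a Klenow-filled degenerate double-stranded DNA library. After 30 min at room temperature in Tris pH 7.5 buffer with NaCl and MgCl2, complexes were pulled down on amylose resin and washed three times. Binding is pull-down over input reads-per-million enrichment from pooled replicates of the proteinase K-released, PCR-barcoded, Illumina-sequenced DNA.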
“GATGATTGTTCTCCCAGCTGATGAATTTGGTCATTCGAGTAAACAAATTTTCCTAATCTTTCTGTTCAAGCGCCATCTAC” was tested, and the binding signal was 1.01 RPM ratio (pull-down/input).
For “GATGATTGTTCTCCCAGCTGATGAATTCCGAGGGTCGAGTAAACAAATTTTCCTAATCTTTCTGTTCAAGCGCCATCTAC”, the binding signal was 0.691 RPM ratio (pull-down/input).
For “GATGATTGTTCTCCCAGCTGATGAATTAAAGCACTCGAGTAAACAAATTTTCCTAATCTTTCTGTTCAAGCGCCATCTAC”, the binding signal was 0.949 RPM ratio (pull-down/input).
“GATGATTGTTCTCCCAGCTGATGAATTAATTTACTCGAGTAAACAAATTTTCCTAATCTTTCTGTTCAAGCGCCATCTAC” was tested, and the binding signal was 1.17 RPM ratio (pull-down/input).
For “GATGATTGTTCTCCCAGCTGATGAATTCGGGCAGTCGAGTAAACAAATTTTCCTAATCTTTCTGTTCAAGCGCCATCTAC”, the binding signal was 0.824 RPM ratio (pull-down/input).
With “GATGATTGTTCTCCCAGCTGATGAATTTACGGACTCGAGTAAACAAATTTTCCTAATCTTTCTGTTCAAGCGCCATCTAC” the binding signal was 1 RPM ratio (pull-down/input).
With “GATGATTGTTCTCCCAGCTGATGAATTTGCTTGCTCGAGTAAACAAATTTTCCTAATCTTTCTGTTCAAGCGCCATCTAC” the binding signal was 1.13 RPM ratio (pull-down/input).
With “GATGATTGTTCTCCCAGCTGATGAATTTCATGGTTCGAGTAAACAAATTTTCCTAATCTTTCTGTTCAAGCGCCATCTAC” the binding signal was 0.885 RPM ratio (pull-down/input).
For “GATGATTGTTCTCCCAGCTGATGAATTTCGTGACTCGAGTAAACAAATTTTCCTAATCTTTCTGTTCAAGCGCCATCTAC”, the binding signal was 0.951 RPM ratio (pull-down/input).
With “GATGATTGTTCTCCCAGCTGATGAATTAAGAGGGTCGAGTAAACAAATTTTCCTAATCTTTCTGTTCAAGCGCCATCTAC” the binding signal was 0.798 RPM ratio (pull-down/input).
With “GATGATTGTTCTCCCAGCTGATGAATTTGCGTTCTCGAGTAAACAAATTTTCCTAATCTTTCTGTTCAAGCGCCATCTAC” the binding signal was 1.11 RPM ratio (pull-down/input).
With “GATGATTGTTCTCCCAGCTGATGAATTTCATAGTTCGAGTAAACAAATTTTCCTAATCTTTCTGTTCAAGCGCCATCTAC” the binding signal was 0.871 RPM ratio (pull-down/input).
In the case of “GATGATTGTTCTCCCAGCTGATGAATTGAGACCCTCGAGTAAACAAATTTTCCTAATCTTTCTGTTCAAGCGCCATCTAC”, the binding signal is reported as 0.781 RPM ratio (pull-down/input).
With “GATGATTGTTCTCCCAGCTGATGAATTCACGCACTCGAGTAAACAAATTTTCCTAATCTTTCTGTTCAAGCGCCATCTAC” the binding signal was 1.1 RPM ratio (pull-down/input).
In the case of “GATGATTGTTCTCCCAGCTGATGAATTTTGCGGTTCGAGTAAACAAATTTTCCTAATCTTTCTGTTCAAGCGCCATCTAC”, the binding signal is reported as 0.956 RPM ratio (pull-down/input).
In the case of “GATGATTGTTCTCCCAGCTGATGAATTCGGTCGATCGAGTAAACAAATTTTCCTAATCTTTCTGTTCAAGCGCCATCTAC”, the binding signal is reported as 0.869 RPM ratio (pull-down/input).
In the case of “GATGATTGTTCTCCCAGCTGATGAATTACCATTCTCGAGTAAACAAATTTTCCTAATCTTTCTGTTCAAGCGCCATCTAC”, the binding signal is reported as 1.02 RPM ratio (pull-down/input).
For “GATGATTGTTCTCCCAGCTGATGAATTGGCGATTTCGAGTAAACAAATTTTCCTAATCTTTCTGTTCAAGCGCCATCTAC”, the binding signal was 0.865 RPM ratio (pull-down/input).
With “GATGATTGTTCTCCCAGCTGATGAATTGATCACATCGAGTAAACAAATTTTCCTAATCTTTCTGTTCAAGCGCCATCTAC” the binding signal was 1.25 RPM ratio (pull-down/input).
“GATGATTGTTCTCCCAGCTGATGAATTACACCTGTCGAGTAAACAAATTTTCCTAATCTTTCTGTTCAAGCGCCATCTAC” was tested, and the binding signal was 1.08 RPM ratio (pull-down/input).
For “GATGATTGTTCTCCCAGCTGATGAATTCACGGACTCGAGTAAACAAATTTTCCTAATCTTTCTGTTCAAGCGCCATCTAC”, the binding signal was 0.808 RPM ratio (pull-down/input).
With “GATGATTGTTCTCCCAGCTGATGAATTAGGATGGTCGAGTAAACAAATTTTCCTAATCTTTCTGTTCAAGCGCCATCTAC” the binding signal was 0.877 RPM ratio (pull-down/input).
“GATGATTGTTCTCCCAGCTGATGAATTAGCATATTCGAGTAAACAAATTTTCCTAATCTTTCTGTTCAAGCGCCATCTAC” was tested, and the binding signal was 1.07 RPM ratio (pull-down/input).
For “GATGATTGTTCTCCCAGCTGATGAATTCATACACTCGAGTAAACAAATTTTCCTAATCTTTCTGTTCAAGCGCCATCTAC”, the binding signal was 1.11 RPM ratio (pull-down/input).
With “GATGATTGTTCTCCCAGCTGATGAATTGGTTACGTCGAGTAAACAAATTTTCCTAATCTTTCTGTTCAAGCGCCATCTAC” the binding signal was 1.04 RPM ratio (pull-down/input).
With “GATGATTGTTCTCCCAGCTGATGAATTTGTATCTTCGAGTAAACAAATTTTCCTAATCTTTCTGTTCAAGCGCCATCTAC” the binding signal was 1.6 RPM ratio (pull-down/input).
With “GATGATTGTTCTCCCAGCTGATGAATTGTATAGATCGAGTAAACAAATTTTCCTAATCTTTCTGTTCAAGCGCCATCTAC” the binding signal was 1.15 RPM ratio (pull-down/input).
With “GATGATTGTTCTCCCAGCTGATGAATTCATAGCATCGAGTAAACAAATTTTCCTAATCTTTCTGTTCAAGCGCCATCTAC” the binding signal was 1.21 RPM ratio (pull-down/input).
“GATGATTGTTCTCCCAGCTGATGAATTTCCTGTGTCGAGTAAACAAATTTTCCTAATCTTTCTGTTCAAGCGCCATCTAC” was tested, and the binding signal was 0.896 RPM ratio (pull-down/input).
With “GATGATTGTTCTCCCAGCTGATGAATTCACTATATCGAGTAAACAAATTTTCCTAATCTTTCTGTTCAAGCGCCATCTAC” the binding signal was 0.909 RPM ratio (pull-down/input).
“GATGATTGTTCTCCCAGCTGATGAATTCACACGATCGAGTAAACAAATTTTCCTAATCTTTCTGTTCAAGCGCCATCTAC” was tested, and the binding signal was 0.839 RPM ratio (pull-down/input).
With “GATGATTGTTCTCCCAGCTGATGAATTCTGGTCATCGAGTAAACAAATTTTCCTAATCTTTCTGTTCAAGCGCCATCTAC” the binding signal was 0.82 RPM ratio (pull-down/input).
